Results taken from the BET-seq Pho4 binding data (Le et al. 2018).
The list shows a part of the results. Values were computed here from the reads of four pooled replicates and scatter widely.

Target: T1, Pho4 (S. cerevisiae) (UniProt P07270)
T1 sequence: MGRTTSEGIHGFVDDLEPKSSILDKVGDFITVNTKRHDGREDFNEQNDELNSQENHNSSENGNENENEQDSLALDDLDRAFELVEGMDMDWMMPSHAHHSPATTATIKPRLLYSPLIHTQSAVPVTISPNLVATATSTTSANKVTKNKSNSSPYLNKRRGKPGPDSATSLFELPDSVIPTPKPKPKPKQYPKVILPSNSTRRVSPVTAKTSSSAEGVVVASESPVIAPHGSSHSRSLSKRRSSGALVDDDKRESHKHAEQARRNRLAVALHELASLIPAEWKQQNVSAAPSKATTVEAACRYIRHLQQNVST
Experiment: relative binding free energy (BET-seq); higher = weaker binding
Details: reference: library average

| Sequence | relative binding free energy |
| --- | --- |
| TTGAGCACGTGGGATG | -0.24 kcal/mol |
| CTTAGCACGTGCGGGT | -0.02 kcal/mol |
| GTGAGCACGTGGTTTG | -0.08 kcal/mol |
| TAGAACACGTGGTTAT | 0 kcal/mol |
| ATGCGCACGTGTGGTA | -0.12 kcal/mol |
| GTGCGCACGTGGGGGA | -0.26 kcal/mol |
| TTGTGCACGTGGCCTT | -0.26 kcal/mol |
| TTAGTCACGTGGGAAA | -0.01 kcal/mol |
| GGGAGCACGTGTCTTG | -0.21 kcal/mol |
| TGTGTCACGTGCGGAC | 0.06 kcal/mol |
| AGGGTCACGTGCCATG | 0.04 kcal/mol |
| ATAGGCACGTGATAGG | -0.08 kcal/mol |
| AGGTCCACGTGAAGTT | 0.22 kcal/mol |
| TAAGTCACGTGGTTAT | -0.04 kcal/mol |
| AATGTCACGTGGTGGC | 0.13 kcal/mol |
| AGGTTCACGTGGGCAC | 0.14 kcal/mol |
| TGTCTCACGTGGTCGA | 0.18 kcal/mol |
| AATAGCACGTGGAGTA | -0.17 kcal/mol |
| TTGCACACGTGGGGTA | -0.2 kcal/mol |
| AGGAACACGTGTTTGT | -0.03 kcal/mol |
| AGGAGCACGTGATTTA | 0.08 kcal/mol |
| CTAGGCACGTGTAGGG | -0.09 kcal/mol |
| GCTTACACGTGAAGGG | 0.5 kcal/mol |

| Sequence | relative binding free energy |
| --- | --- |
| CGGGGCACGTGTTGGA | -0.15 kcal/mol |
| TTACGCACGTGATTTA | 0 kcal/mol |
| ACGGGCACGTGGAGTG | -0.17 kcal/mol |
| AGTGACACGTGGAGGA | -0.08 kcal/mol |
| GTTGTCACGTGCATTG | 0.05 kcal/mol |
| ATGGTCACGTGGGCAT | -0.1 kcal/mol |
| CAGAGCACGTGAAGGG | 0.33 kcal/mol |
| ATTATCACGTGGGTCG | -0.14 kcal/mol |
| TCTAACACGTGGTGAG | 0.02 kcal/mol |
| ATTAGCACGTGACTTG | 0.09 kcal/mol |
| TTCTTCACGTGTGGAG | 0.33 kcal/mol |
| TTGGTCACGTGACTTG | 0.24 kcal/mol |
| TTCTACACGTGCGGGT | 0.16 kcal/mol |
| TATTACACGTGGGGCG | 0.01 kcal/mol |
| GGGTACACGTGAGTTG | 0.27 kcal/mol |
| TCTGGCACGTGGTCTT | -0.25 kcal/mol |
| AAGGTCACGTGGAAGC | 0.37 kcal/mol |
| CGTGACACGTGTTCGG | 0.06 kcal/mol |
| GCGCTCACGTGTGGTT | 0.25 kcal/mol |
| AGCGGCACGTGGTATG | -0.27 kcal/mol |
| GCGGGCACGTGGGGGG | -0.2 kcal/mol |
| TAAGGCACGTGTCTGA | -0.14 kcal/mol |
| TGTAACACGTGAGCGT | 0.24 kcal/mol |

| Sequence | relative binding free energy |
| --- | --- |
| TTCGACACGTGGTGTT | -0.08 kcal/mol |
| ATAGTCACGTGATTCT | 0.19 kcal/mol |
| GTTTGCACGTGCGGAT | -0.01 kcal/mol |
| GGGTACACGTGATTGG | 0.19 kcal/mol |
| GCCGTCACGTGATGGG | 0.24 kcal/mol |
| AGTTGCACGTGTTTAA | 0.06 kcal/mol |
| GCAAGCACGTGTTGGG | 0.03 kcal/mol |
| TATTGCACGTGTGGAA | 0.15 kcal/mol |
| AGGTGCACGTGATGAA | 0.12 kcal/mol |
| AGCTGCACGTGAAGTT | 0.17 kcal/mol |
| AAAGTCACGTGAGTTA | 0.26 kcal/mol |
| GTTAGCACGTGCAAGG | 0.01 kcal/mol |
| TATTACACGTGGGGCT | -0.06 kcal/mol |
| GGGTACACGTGTTTTT | 0.17 kcal/mol |
| GGGCTCACGTGACGGG | 0.42 kcal/mol |
| TGTCGCACGTGGATTT | -0.03 kcal/mol |
| AGGTACACGTGTGAGA | 0.24 kcal/mol |
| GGGATCACGTGATTGC | 0.35 kcal/mol |
| GCGGACACGTGTTGGG | 0.06 kcal/mol |
| TTCGTCACGTGTCTTG | 0.07 kcal/mol |
| GGTGCCACGTGTCTGT | -0.08 kcal/mol |
| TAGTTCACGTGCCGTG | 0.29 kcal/mol |
| TTTTGCACGTGCATTG | -0.05 kcal/mol |

| Sequence | relative binding free energy |
| --- | --- |
| CGCGGCACGTGTGTGA | -0.05 kcal/mol |
| TTTTGCACGTGTAATA | 0.06 kcal/mol |
| TTCTGCACGTGGGCGT | -0.05 kcal/mol |
| GTGTTCACGTGTGTAG | 0.4 kcal/mol |
| TTGGACACGTGTGGGC | 0.18 kcal/mol |
| GCAGTCACGTGGGGTC | 0.05 kcal/mol |
| GCGTTCACGTGGCTGA | 0.42 kcal/mol |
| GTGTGCACGTGCTTGG | -0.09 kcal/mol |
| TAGTTCACGTGATATG | 0.29 kcal/mol |
| CGTGTCACGTGATGAA | 0.18 kcal/mol |
| GTGTACACGTGGATTG | 0.12 kcal/mol |
| TATATCACGTGATAGG | 0.23 kcal/mol |
| CGAGACACGTGCGGGT | -0.03 kcal/mol |
| TAAGTCACGTGTAGGT | 0.18 kcal/mol |
| AGATTCACGTGTTATA | 0.09 kcal/mol |
| GTGATCACGTGTGAGA | 0.32 kcal/mol |
| GGCGTCACGTGTTATT | 0.11 kcal/mol |
| GTTAGCACGTGGATAT | -0.13 kcal/mol |
| AGTGACACGTGGAAAG | 0.02 kcal/mol |
| ACGAGCACGTGCGGGG | -0.02 kcal/mol |
| GGTGCCACGTGAGTGT | 0.17 kcal/mol |
| GCATTCACGTGAGTTT | 0.42 kcal/mol |
| GGGCACACGTGGTATG | -0.03 kcal/mol |

| Sequence | relative binding free energy |
| --- | --- |
| GTCTGCACGTGTGGTG | 0.1 kcal/mol |
| TTTTACACGTGAGGGA | 0.27 kcal/mol |
| ATGTTCACGTGGTATC | 0.35 kcal/mol |
| TAAAACACGTGAGGTG | 0.2 kcal/mol |
| GTTGACACGTGAGGAG | 0.05 kcal/mol |
| TGATCCACGTGGGGGC | -0.18 kcal/mol |
| AGGTTCACGTGGTCAG | 0.21 kcal/mol |
| ACAGGCACGTGGGTTT | -0.12 kcal/mol |
| TGGTTCACGTGCAAAG | 0.24 kcal/mol |
| TCTGTCACGTGCTTTA | 0.21 kcal/mol |
| AGGTGCACGTGGCTGG | -0.04 kcal/mol |
| TAATTCACGTGGTAGG | 0.19 kcal/mol |
| GGGCACACGTGGGTGT | -0.02 kcal/mol |
| TGTCTCACGTGGGCTG | 0.08 kcal/mol |
| TTGAGCACGTGATTGT | 0.13 kcal/mol |
| GCGGACACGTGGTAGG | -0.05 kcal/mol |
| GGGTACACGTGGTCTT | -0.02 kcal/mol |
| AGTTACACGTGGGAAT | 0.13 kcal/mol |
| TCGTTCACGTGGAATT | 0.28 kcal/mol |
| TGAATCACGTGTGGCA | 0.24 kcal/mol |
| TGGAGCACGTGAGGTG | 0.24 kcal/mol |
| GAATGCACGTGTGGGG | 0.11 kcal/mol |
| TTATACACGTGCGTAT | -0.06 kcal/mol |
